Reference: the supplement of paper PMC4967469

Assays:
Test in all cases: Viability of human cancer cell lines after 72 h of drug (GDSC screen)
GSK-650394 = compound: O=C(O)c1ccc(-c2c[nH]c3ncc(-c4ccccc4)cc23)cc1C1CCCC1 [GSK-650394]; settings: top dose 16 µM; top dose inferred
Description: (§1)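 Human cancer cell lines in 384-well plates, medium with 10% serum, drug for 72 h over a 256-fold dose range (nine 2-fold or five 4-fold steps up to the top dose). Adherent lines were fixed and stained with the nucleic acid dye Syto60, suspension lines read with resazurin; signal relative to control wells, capped at 0 and 100%. One two-parameter sigmoid per drug and line, fitted in a mixed model over all curves with the slope shared within a line.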

XAV 939 = compound: Oc1nc(-c2ccc(C(F)(F)F)cc2)nc2c1CSCC2 [XAV 939]; settings: top dose 5 µM; top dose inferred
Description: as §1

BMS-345541 = compound: Cc1ccc2nc(NCCN)c3ncc(C)n3c2c1 [BMS-345541]; settings: top dose 16 µM
Description: as §1

Etoposide = compound: COc1cc([C@@H]2c3cc4c(cc3[C@@H](O[C@@H]3O[C@@H]5CO[C@@H](C)O[C@H]5[C@H](O)[C@H]3O)[C@H]3COC(=O)[C@H]23)OCO4)cc(OC)c1O [Etoposide]; settings: top dose 16 µM
Description: as §1

NPK76-II-72-1 = compound: COc1cc(C(=O)NC2CCN(C)CC2)ccc1Nc1ncc2c(n1)N(C1CCCC1)C(C)CC(=O)N2C [NPK76-II-72-1]; settings: top dose 10.24 µM; top dose inferred
Description: as §1

YK 4-279 = compound: COc1ccc(C(=O)CC2(O)C(=O)Nc3c(Cl)ccc(Cl)c32)cc1 [YK 4-279]; settings: top dose 10 µM
Description: as §1

AZD7762 = compound: NC(=O)Nc1cc(-c2cccc(F)c2)sc1C(=O)N[C@H]1CCCNC1 [AZD7762]; settings: top dose 2 µM
Description: as §1

Bexarotene = compound: C=C(c1ccc(C(=O)O)cc1)c1cc2c(cc1C)C(C)(C)CCC2(C)C [Bexarotene]; settings: top dose 8 µM
Description: as §1

Cell Line | AUC (GSK-650394) | IC50 (GSK-650394) [µM] | AUC (XAV 939) | IC50 (XAV 939) [µM] | AUC (BMS-345541) | IC50 (BMS-345541) [µM] | AUC (Etoposide) | IC50 (Etoposide) [µM] | AUC (NPK76-II-72-1) | IC50 (NPK76-II-72-1) [µM] | AUC (YK 4-279) | IC50 (YK 4-279) [µM] | AUC (AZD7762) | IC50 (AZD7762) [µM] | AUC (Bexarotene) | IC50 (Bexarotene) [µM]
Caov-4 (ovary, adherent) | 0.959 | > 16 | 0.883 | > 5 | 0.809 | 13.6 | 0.93 | > 16 | 0.921 | > 10.2 | 0.828 | > 10 | 0.69 | 0.551 | 0.979 | > 8
D-263MG (glioma, adherent) | 0.79 | 8.86 | 0.945 | > 5 | 0.887 | > 16 | 0.977 | > 16 | 0.975 | > 10.2 | 0.679 | 2.21 | 0.793 | 1.14 | 0.938 | > 8
D-283MED (medulloblastoma, adherent) | 0.988 | > 16 | 0.985 | > 5 | 0.99 | > 16 | 0.625 | 2.14 | 0.991 | > 10.2 | 0.958 | > 10 | 0.529 | 0.149 | 0.966 | > 8
D-392MG (glioma, adherent) | 0.905 | > 16 | 0.915 | > 5 | 0.888 | > 16 | 0.899 | > 16 | 0.959 | > 10.2 | 0.797 | 6.83 | 0.681 | 0.487 | 0.909 | > 8
D-502MG (glioma, adherent) | 0.973 | > 16 | 0.874 | > 5 | 0.94 | > 16 | 0.971 | > 16 | 0.965 | > 10.2 | 0.71 | 3.46 | 0.843 | > 2 | 0.973 | > 8
D-542MG (glioma, adherent) | 0.984 | > 16 | 0.982 | > 5 | 0.983 | > 16 | 0.961 | > 16 | 0.968 | > 10.2 | 0.764 | 4.41 | 0.848 | > 2 | 0.88 | > 8
DEL (lymphoid neoplasm, suspension) | 0.705 | 3.25 | 0.988 | > 5 | 0.896 | 12.3 | 0.315 | 0.345 | 0.919 | 9.95 | 0.541 | 0.788 | 0.464 | 0.102 | 0.993 | > 8
DG-75 (Burkitt lymphoma, suspension) | 0.979 | > 16 | 0.97 | > 5 | 0.74 | 4.89 | 0.926 | > 16 | 0.862 | 8.93 | 0.736 | 2.98 | 0.459 | 0.0964 | 0.983 | > 8
DMS-53 (small cell lung carcinoma, adherent) | 0.974 | > 16 | 0.954 | > 5 | 0.964 | > 16 | 0.955 | > 16 | 0.988 | > 10.2 | 0.895 | > 10 | 0.97 | > 2 | 0.95 | > 8
DMS-79 (small cell lung carcinoma, suspension) | 0.982 | > 16 | 0.958 | > 5 | 0.897 | > 16 | 0.878 | > 16 | 0.922 | > 10.2 | 0.982 | > 10 | 0.797 | 1.13 | 0.987 | > 8
DND-41 (T-cell leukaemia, suspension) | 0.822 | 7.95 | 0.98 | > 5 | 0.559 | 1.42 | 0.456 | 0.77 | 0.469 | 0.533 | 0.792 | 3.93 | 0.551 | 0.169 | 0.957 | > 8
DSH1 (bladder, adherent) | 0.989 | > 16 | 0.988 | > 5 | 0.89 | > 16 | 0.632 | 2.28 | 0.965 | > 10.2 | 0.947 | > 10 | 0.879 | 1.91 | 0.974 | > 8
DU-145 (prostate, adherent) | 0.77 | 6.79 | 0.806 | 2.92 | 0.956 | > 16 | 0.443 | 0.686 | 0.906 | > 10.2 | 0.812 | 6.14 | 0.908 | > 2 | 0.893 | > 8
DU-4475 (breast, suspension) | 0.916 | > 16 | 0.989 | > 5 | 0.748 | 4.35 | 0.17 | 0.132 | 0.914 | > 10.2 | 0.896 | 8.26 | 0.745 | 0.532 | 0.984 | > 8
Daudi (Burkitt lymphoma, suspension) | 0.947 | > 16 | 0.987 | > 5 | 0.889 | 14.1 | 0.742 | 4.41 | 0.907 | > 10.2 | 0.823 | 4.91 | 0.686 | 0.384 | 0.96 | > 8

IC50 is the fitted dose that halves viability relative to control wells, and lower means more sensitive; a fit beyond the top or the lowest dose is shown as a bound at that dose. For AUC the same curve is integrated over the 256-fold range of doses and scaled to a fraction: 1 means no effect, lower means more sensitive. For part of these data: Where the top dose is marked as inferred, it was calculated from the reported fits.
